PubChem BioAssay AID1865 (National Center for Advancing Translational Sciences (NCATS), 2009)
The whole screen tested about 280,000 compounds, of which about 540 (0.19%) were called active. This list was built around the results that the source calls inconclusive (neither active nor inactive); the mix of calls is not that of the screen. Calls come from the whole dose curve; as a rule, active = well fitted activation curve with a large enough effect; inconclusive = small, poorly fitted or top-dose-only effect; inactive = flat fitted curve, though single readings scatter. Potencies beside an inconclusive call are fits to weak or partial responses and may not hold up.

Test: Quantitative High-Throughput Screen for Regulators of Epigenetic Control; note: nearly all actives have a fitted effect of over 60% in size
Conditions: murine LDR cells, GFP reporter derepression, 30 h; series mostly up to 53.9 µM
Method in brief: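 GFP-positive cell count by laser-scanning cytometry (objects 20–120 um) after 30 h, 37 C compound exposure of murine LDR cells; reporter is CMV-GFP integrated at a silenced locus, inducible by HDAC or DNMT inhibitors.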
Potency is the fitted concentration of half-maximal effect; tags give direction and shape of the fitted curve.

SMILES | Potency
CC(=O)c1c(O)c(C)c(-c2ccccc2)n(-c2ccccc2)c1=O | inactive
O=C(Nc1cccc(C(=O)OCc2cc(=O)n3ccsc3n2)c1)c1ccc(F)cc1 | inconclusive: 12.6 µM [activator, partial curve]
Cc1ccc(C(=O)Nc2ccc3c(c2)N(C)C(=O)c2ccccc2S3)cc1F | inactive
Cc1ccc(-c2ccc(/C=N/NC(=O)c3ccccc3O)o2)cc1 | inconclusive: 35.5 µM [activator, single point]
Cc1cc(C(=O)CC#N)c(C)n1-c1ccc(OC(F)F)cc1 | inactive
COc1ccc(S(=O)(=O)c2cn(CC(=O)Nc3ccccc3)c3ccc(Cl)cc3c2=O)cc1 | inconclusive: 35.5 µM [activator, single point]
Cc1c(C(=O)NC(=S)Nc2ccc3c4c(cccc24)CC3)cccc1[N+](=O)[O-] | inactive
Oc1[nH]c2ccccc2c1N=Nc1ncnc2c1oc1ccccc12 | inconclusive: 31.6 µM [activator, single point]
COc1cccc(N2CC(=O)Nc3c(oc4nc(-c5ccccc5)cc(C)c34)C2=O)c1 | inconclusive: 17.8 µM [activator, single point]
NS(=O)(=O)c1ccc2c(c1)oc(=O)c1cc(S(N)(=O)=O)ccc12 | inactive
N#Cc1c(-c2ccccc2)no[n+]1[O-] | inconclusive: 6.31 µM [activator, single point]
COC(=O)c1c(C)oc2c1cc(NS(=O)(=O)c1c(C)cc(C)cc1C)c1ccccc12 | inactive
O=C(O)c1c[nH]c(=S)n1-c1ccc(F)cc1 | inactive
COc1ccc(NC(=O)Cn2c(=O)n(-c3cccc(C)c3)c(=O)c3c2c2cc(C)ccc2n3C)cc1OC | inconclusive: 35.5 µM [activator, single point]
Cc1ccc2oc(-c3ccc(C)c(NC(=O)c4ccc5c(c4)OCCO5)c3)nc2c1 | inconclusive: 35.5 µM [activator, single point]
CC(=O)Nc1ccc(S(=O)(=O)N2CCN(c3cc4c(cc3[N+](=O)[O-])n(C)c(=O)n4C)CC2)cc1 | inactive
CCn1c(/C=C/c2ccc([N+](=O)[O-])o2)nc2ccccc2c1=O | active: 3.55 µM
CCOC(=O)c1ccc(-c2ccc(/C=C(\C#N)C(=O)Nc3c(C)cccc3Cl)o2)cc1 | active: 11.2 µM
CCCCN(C)C(=O)CCCCn1c(=O)[nH]c2cc(OCC)c(OCC)cc2c1=O | inactive
CC(C)CCNC(=O)c1ccc(Cn2c(=O)c3cccn3c3cccnc32)cc1 | inconclusive: 35.5 µM [activator, single point]
CCCCN(CC)S(=O)(=O)c1ccc(C(=O)N=c2sc3cc(NC(C)=O)ccc3n2C)cc1 | inconclusive: 3.55 µM [activator, full curve]
O=C(Cn1cc(S(=O)(=O)c2ccc(F)cc2)c(=O)c2cc3c(cc21)OCO3)Nc1ccccc1 | inconclusive: 31.6 µM [activator, single point]
CCCC[C@@H]1CNC(=S)N1CCC12CC3CC(CC(C3)C1)C2 | inactive
CN(C)/N=C/C=C1\CCC/C(=C/c2cccs2)C1=O | inconclusive: 17.8 µM [activator, single point]

SMILES | Potency
COc1ccc(NC(=O)c2ccc(NC(=O)C(C)C)cc2)c([N+](=O)[O-])c1 | active: 14.1 µM
Cc1nnc2sc(-c3ccc(NC(=O)CSc4ccc(Cl)cc4)cc3)nn12 | inconclusive: 20 µM [activator, single point]
CCN1CCN(C(c2cc(OC)c(OC)c(OC)c2)c2nnnn2C(C)C)CC1 (stereo not given) | inconclusive: 3.55 µM [activator, single point]
COc1ccc(C(=O)N/N=C/c2sc3ccccc3c2O)cc1 | inactive
CCOc1ccc(N2C(=O)CC(Sc3ncccn3)C2=O)cc1 (stereo not given) | inactive
Cc1nc(NC(=O)CSc2nc3cccnc3n2Cc2ccccc2)sc1C | inactive
CCOc1cc(-c2nnc(SCC(=O)Nc3ccc(F)c(F)c3)nc2-c2ccc(OC)c(OCC)c2)ccc1OC | active: 15.8 µM
CC(=O)N1CCc2c(sc3c2c(=O)n(-c2ccccc2)c(=O)n3CC(=O)Nc2cccc(C)c2)C1 | inconclusive: 25.1 µM [activator, single point]
COC(=O)C(=C/C(C)=C/c1cccs1)C(=O)OC | inconclusive: 35.5 µM [activator, single point]
COC(=O)c1cc2c(C)c(C)c3ccccn3c-2c1C(=O)OC | inconclusive: 31.6 µM [activator, single point]
CCOC(=O)c1cnc(Nc2nc3ccccc3o2)nc1CSC(=S)N(CC)CC | inconclusive: 12.6 µM [activator, single point]
CCC(=O)c1ccc(OC(=O)c2cnccn2)cc1 | inconclusive: 35.5 µM [activator, single point]
Cc1cc(=O)[nH]c(SCCCOc2ccccc2Cl)n1 | inactive
COc1ccc(-c2nnc(C3CCN(C(=O)c4ccccc4F)CC3)o2)cc1 | inconclusive: 31.6 µM [activator, single point]
CC(=O)c1cc2c(cc1NC(=O)c1c(C)nn(-c3ccc(C)cc3)c1-n1cccc1)OCO2 | inactive
CC(O)c1cccc(NC(=O)CCCc2ccccc2)c1 (stereo not given) | inactive
Cc1cc(C)c(Cn2c3ccccc3c3cnn(CC(=O)N4CCCCCC4)c(=O)c32)c(C)c1 | inconclusive: 35.5 µM [activator, single point]
CC(=O)c1ccc(NC(=O)c2c3c(nc4ccccc24)C(=O)N(C2CCCCC2)C3)cc1 | inconclusive: 28.2 µM [activator, single point]
Cc1ccccc1N1C(=O)C(Oc2ccc(Cl)cc2)C1CNC(C)(C)C (stereo not given) | inconclusive: 35.5 µM [activator, single point]
COCCCn1c(=O)/c(=C\c2ccccc2OC(C)C)s/c1=C(/C#N)C(=O)Nc1ccc(C(=O)O)cc1 | inconclusive: 15.8 µM [activator, single point]
O=C(/C=C/c1ccc(S(=O)(=O)N2CCOCC2)cc1)NC(=S)Nc1ccc(Cl)cc1Cl | inconclusive: 31.6 µM [activator, single point]
CSc1cccc(NC(=S)N(CCN(C)C)C(C)c2ccncc2)c1 (stereo not given) | inactive
COc1ccc(CCN2C(=O)CC(Cc3cccc(C)c3)C2=O)cc1OC (stereo not given) | inactive
COc1ccc(N2C(=O)CC(Sc3nnc(-c4ccccc4)o3)C2=O)cc1 (stereo not given) | inconclusive: 1.12 µM [activator, single point]

SMILES | Potency
Cc1ccc2nc3sc(C(=O)Nc4c(C)[nH]c(=O)[nH]c4=O)c(N)c3cc2c1 | inconclusive: 31.6 µM [activator, single point]
CCCN(Cc1ccccc1)C(=S)NC(=O)c1ccccc1[N+](=O)[O-] | inactive
COCCCn1c(=O)/c(=C\c2ccc(OC(F)F)c(OC)c2)s/c1=C(/C#N)C(N)=O | inconclusive: 31.6 µM [activator, single point]
CCOc1cccc(CNc2ccc(O)cc2)c1OCc1ccc(Cl)cc1Cl | inconclusive: 28.2 µM [activator, single point]
COc1ccccc1NC(=O)c1cnc(SCC(=O)N2CCCc3ccccc32)n(C)c1=O | inconclusive: 25.1 µM [activator, single point]
CCOC(=O)c1ccc(NC(=S)NNC(C)(C)C)cc1 | inconclusive: 25.1 µM [activator, single point]
CCOC(=O)C1=C(O)c2ccccc2C(=O)/C1=C\c1ccc(CC)cc1 | inconclusive: 35.5 µM [activator, single point]
CCc1ccc(C2CC(=O)Nc3cc4c(cc32)OCO4)cc1 (stereo not given) | inactive
CCCc1nnc(SCCSc2nnc(CCC)n2N)n1N | inconclusive: 35.5 µM [activator, single point]
O=C(CSc1nc2ccc([N+](=O)[O-])cc2s1)NC1CCS(=O)(=O)C1 (stereo not given) | inconclusive: 31.6 µM [activator, single point]
Cc1ccc(NC(=O)Cn2c(=O)n(CCC(=O)N3CCc4ccccc4C3)c(=O)c3ccccc32)cc1 | inactive
Cc1c(C#N)c(NC(=O)CCl)n(Cc2ccccc2)c1C | inconclusive: 3.55 µM [activator, single point]
COc1ccccc1CN1COc2ccc3c(oc(=O)c4ccccc43)c2C1 | inconclusive: 35.5 µM [activator, single point]
CN1C(=O)c2oc3ccccc3c(=O)c2C1c1ccncc1 (stereo not given) | inconclusive: 31.6 µM [activator, single point]
CCCCn1nnnc1NCc1ccc(OC)c(OC)c1OC | inactive
Cc1cccc(-c2nnn3c2nc(NCCc2ccc(S(N)(=O)=O)cc2)c2cc(Cl)ccc23)c1 | inconclusive: 35.5 µM [activator, single point]
CC/C=C\C[C@H](O)/C=C/C=C\C/C=C\C/C=C\CCCC(=O)O | inactive
COC(=O)c1cc(C(=O)c2ccc(Cl)cc2)n2c(=O)/c(=C\N(C)C)sc12 | inconclusive: 3.16 µM [activator, single point]
Fc1c(F)c(F)c(N/N=C/c2c[nH]c3ccccc23)c(F)c1F | inconclusive: 15.8 µM [activator, single point]
O=C(NCC(c1cccnc1)N1CCc2ccccc2C1)C(=O)Nc1ccc(Cl)cc1 (stereo not given) | inconclusive: 25.1 µM [activator, single point]
Cc1cccc(N2CCN(C(=O)c3cnn(-c4cccc(Cl)c4C)c3C3CCNCC3)CC2)c1C | inactive
CCOC(=O)Cc1c(C)c2ccc(N(CC)CC)cc2oc1=O | inconclusive: 22.4 µM [activator, single point]
